# In the supplement of paper PMC4604168 (melanoma cell lines):
# The other results are listed elsewhere or left out. Single values are uncertain, as repeats are few or missing.
# Tested on: IST-MEL1
# Experiment: cell count relative to DMSO control; melanoma cells; higher = more viable cells
# Settings: library dose: low library concentration; 72 h
# 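Further: cell number obtained by counting DAPI-stained nuclei in high-throughput microscope images with image analysis software, screen run in 1,536-well plates.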
row,SMILES,cell count
1,"C=CCNC1=C2C[C@@H](C)C[C@H](OC)[C@H](O)[C@@H](C)/C=C(\C)[C@H](OC(N)=O)[C@@H](OC)/C=C\C=C(/C)C(=O)NC(=CC1=O)C2=O [Tanespimycin] + Cn1cc(/C=C2\C(=O)Nc3cccnc32)c2ccccc21 [GW441756] (first compound 0.002 µM, partner dose 0.4 µM)",93%
2,"CNC(=O)c1cc(Oc2ccc(NC(=O)Nc3ccc(Cl)c(C(F)(F)F)c3)cc2)ccn1 [sorafenib] + c1cc(-c2cnn3cc(-c4ccc(OCCN5CCCCC5)cc4)cnc23)ccn1 [Dorsomorphin] (first compound 0.4 µM, partner dose 0.4 µM)",94.2%
3,"C[C@@H](Oc1cc(-c2cnn(C3CCNCC3)c2)cnc1N)c1c(Cl)ccc(F)c1Cl [Crizotinib] + COc1cc(N2CCC(N3CCN(C)CC3)CC2)ccc1Nc1ncc(Cl)c(Nc2ccccc2S(=O)(=O)C(C)C)n1 [NVP-TAE684] (first compound 0.2 µM, partner dose 0.08 µM)",98.9%
4,"CNC(=O)c1cc(Oc2ccc(NC(=O)Nc3ccc(Cl)c(C(F)(F)F)c3)cc2)ccn1 [sorafenib] + CCCCCCCCCCCC1=C(O)C(=O)C=C(O)C1=O [Embelin] (first compound 0.4 µM, partner dose 1.2 µM)",105%
5,"CS(=O)(=O)CCNCc1ccc(-c2ccc3ncnc(Nc4ccc(OCc5cccc(F)c5)c(Cl)c4)c3c2)o1 [lapatinib] + O=C(Nc1ccccc1)c1cc([N+](=O)[O-])ccc1Cl [GW9662] (first compound 0.8 µM, partner dose 2 µM)",94.7%
